# Source: paper PMC12136788
# Some of the results follow.
# B1: chr18:2804133:2804242:+|3pUTR|ENSG00000101596|unk|total|mutant (ssRNA)
# RNA: GGGAGUUCUACAGUCCGACGAUCGGUUAAAGAGAAAUGACUUUUCCGGAACCCGACUUGAACGUAUAAUUAAUAUGUGGAACCCGUUUGCUUUUAUAAUUCAUUGUAUCAAGAAGGAGUCAUGUUUUAAAUCCAAGGCAUUGACAACAGAGGAUUGAGCAUCA
# B2: chr22:41245667:41245769:-|3pUTR|ENSG00000100401|msi1|FALSE|unique (ssRNA)
# RNA: GGGAGUUCUACAGUCCGACGAUCCAAUGUCCGAGCUGCAUCUGGACGCUGCUCUUAAAGGACCUCCUGGGGCAGGGGAGCGGUAGGGUCUGGACUGGGCAGAUGCUGUAUGACCUCCCUGAGCACCCGUGACUGCCCCAUGCUCAACAGAGGAUUGAGCAUCA
# B3: chr7:5606511:5606625:+|3pUTR|ENSG00000075618|msi1_unk|total|mutant (ssRNA)
# RNA: GGGAGUUCUACAGUCCGACGAUCGGGUGUCUUGGUCUUUUAUUUUUUGUAAGUGUCAUUUGUAUAACUCUAAACGCCCAUGACCGCCGCUUCAAACUGGAAACCGCGAAAUAAAAUAACUCAGUCUGCAGCCCCAGGCCGGCCCAACAGAGGAUUGAGCAUCA
# B4: chrX:74588119:74588220:-|3pUTR|ENSG00000131263|msi1|total|mutant (ssRNA)
# RNA: GGGAGUUCUACAGUCCGACGAUCUCCGAAAAUGCUGGGAUUACAGGCGUGAGCCACCAUGUCCAGCCAAAGUUGAGGUUUAUCCGUACUAUCCGAAACAAAAUUGAGCAAGUUAAGUUAAAAGUUUGCUGACUUUGUAUCAACCAACAGAGGAUUGAGCAUCA
# B5: chr15:48342169:48342270:+|3pUTR|ENSG00000128951|msi1_unk|FALSE|overlapping (ssRNA)
# RNA: GGGAGUUCUACAGUCCGACGAUCAAAAAAAAAAAAAGUUUUUGCUUCAAGUGUUUUGGUGUUUUGCACUUCUGUAAACUUACUAGCUUUACCUUCUAAAAGUACUGCAUUUUUUACUUUUUUUUAUGAUCAAGGAAAAGAUCACAACAGAGGAUUGAGCAUCA
# B6: chr12:98549714:98549829:+|3pUTR|ENSG00000120802|unk|FALSE|unique (ssRNA)
# RNA: GGGAGUUCUACAGUCCGACGAUCGAAGAUGUAUAUUUAGACCAGCACACAAUUUUGAUUUCAAUUAGCCUUAUUCUAAUAUUUAGCUUUUAGAUCUUUCAUACACAUUUUCACGUACUUUGCAAUUGAGACCAGAAAGACUUGCAACAGAGGAUUGAGCAUCA
# B7: chr11:77702383:77702481:-|5pUTR_CDS|ENSG00000048649|msi1_unk|FALSE|overlapping (ssRNA)
# RNA: GGGAGUUCUACAGUCCGACGAUCAUUUUUAGAGGAACAGAAAGAAAGUGAAAAGAUGAAAAGUGAGGAGCAGCCUAUGGAUUUAGAAAACCGUUCUACAGCCAAUGUUCUAGAAGAGACUACUGUGAAAAAAGAAAAAGAAGACAACAGAGGAUUGAGCAUCA
# B8: chr12:74541195:74541296:+|3pUTR|ENSG00000253719|msi1|total|mutant (ssRNA)
# RNA: GGGAGUUCUACAGUCCGACGAUCUGGGGGAAGGGGGGGGUUCUUUAAAAUUUCUGUGGUUUGUGGCUUUUUCUUCCAUACAUCCGUUCCCACCAUCGCAUGCCCAGGGACCACUGCCUGGCAUUAUCGCAUGCUGGGAUCAUCCAACAGAGGAUUGAGCAUCA
# B9: chr14:100883672:100883793:-|CDS|ENSG00000254656|unk|FALSE|unique (ssRNA)
# RNA: GGGAGUUCUACAGUCCGACGAUCUCUAUUCCGGGUCCCUCAGCCGGAUUCCCUAGACAGUCUGAUUGUGCUCAUCCUGCAAAUAGAAGAGAAGCUGGCAGAGAGAAGAGCUAUGCUCAGGCUGCCCCCCGAGGCCCGCCCCCGCAACAGAGGAUUGAGCAUCA
# B10: ENSG00000124766:be:win_2651|3pUTR|ENSG00000124766|bound_else_gene|NA|bound_elsewhere_windowed (ssRNA)
# RNA: GGGAGUUCUACAGUCCGACGAUCAAAUUAUCACCAGCUUUUUUUCAUUCUUAACUCUUUAAAGGAUUCAAACGCAACUCAAAUCUGUGCUGGACUUUAAAAAAACAAUUCAGGACCAAAUUUUUUCUCAGUGUGUGUGUUUAUCAACAGAGGAUUGAGCAUCA
# B11: chr13:108210595:108210700:-|CDS|ENSG00000174405|unk|total|mutant (ssRNA)
# RNA: GGGAGUUCUACAGUCCGACGAUCUCAGCACUUGAGCAAAAGUGGCUUAUACGGAUGAUCAUAAAGGAUUUAAAGCUUGGUGUCCGUCAGCAAACUAUCUUUUCUGUUUUUCAUAAUGAUGCUGCUGAGUUGCAUAAUGUCACUCAACAGAGGAUUGAGCAUCA
# B12: ENSG00000124766:be:win_2201|3pUTR|ENSG00000124766|bound_else_gene|NA|bound_elsewhere_windowed (ssRNA)
# RNA: GGGAGUUCUACAGUCCGACGAUCGCGGGAGCUAGGGGCGGGGGCGGAGGAGGACACGAACUGGAAGGGGGUUCACGGUCAAACUGAAAUGGAUUUGCACGUUGGGGAGCUGGCGGCGGCGGCUGCUGGGCCUCCGCCUUCUUUCAACAGAGGAUUGAGCAUCA
# B13: chr10:62092816:62092917:+|CDS|ENSG00000150347|msi1|total|mutant (ssRNA)
# RNA: GGGAGUUCUACAGUCCGACGAUCUUUUACAUCACCGACAAAUUCUCAGCAGCUGUACAGACACUUGGCUGCGGCUACACCUGCCGGAAGUUCAUAUGGGGACCUUUUGCAUAACAGCAUUUACCCUUCCGCUGCUAUAAAUCCCAACAGAGGAUUGAGCAUCA
# B14: chr6:112122013:112122201:-|CDS|ENSG00000112769|control|control|control (ssRNA)
# RNA: GGGAGUUCUACAGUCCGACGAUCCCCAGAGCGGAAUACUCCAAGAAACUCUCAUUGCCACCUUUCCAACAGCCCUAGAGCAAUAGAGCACGCCUAUCAAUAUGGAGGAACAGCCAACAGCCGCCAAGAGUUUGAACACUUAAACAACAGAGGAUUGAGCAUCA
# B15: chrX:42777473:42778079:-|CDS|ENSG00000102055|control|control|control (ssRNA)
# RNA: GGGAGUUCUACAGUCCGACGAUCCGGCAGUUCGAAAUGAGAAGAAGGCUUCACUACAACGAAGAAUUGAACAUCAAAUUAGCUAGACAAUUAAUGUGGAAAGAGCUACAAAGUGAAGAUAAUGAAAACGAAGAAACGCCACAACAACAGAGGAUUGAGCAUCA
# B16: chr5:37333503:37333606:-|CDS|ENSG00000113569|unk|FALSE|unique (ssRNA)
# RNA: GGGAGUUCUACAGUCCGACGAUCGAUGACAGCUGGUGUUGAUGGUCAUUCCUGGGCUCUUUCUGCGAUAGAUGAAUUGAAAGUAGAUAAAAUAAUUACACCUUUAAACAAGGAUCAUAUUCCAAUAACUGAUUCACCAGUUGUCAACAGAGGAUUGAGCAUCA
# B17: chr17:64039079:64045293:-|three_prime_utr|ENSG00000178607|control|control|control (ssRNA)
# RNA: GGGAGUUCUACAGUCCGACGAUCUUUCUUGGGUGUGUCCUCUGUGGUUUGGUUACACUGAUGUGUGUUUCAUUUUUGUUCCCUAGAGUGACAGGUGAGUGAUGGUGUCGUGCUCUAGGUGGUCAUUUCUGACCUGGGUGUGAUCAACAGAGGAUUGAGCAUCA
# B18: chr4:55904547:55904648:+|3pUTR|ENSG00000090989|msi1|total|mutant (ssRNA)
# RNA: GGGAGUUCUACAGUCCGACGAUCAAAAUACCAAGCAACUGUUUUGAGAACCCAGACUUAAAAUUUUAUGUAUUAUUAAAUGUCCGAUAAAUGGGCCGUACCAUACUACAAAUAUUUAAAUGCAAAAUUACCAACCUAUACCGCCAACAGAGGAUUGAGCAUCA
# B19: ENSG00000070961:be:win_4551|3pUTR|ENSG00000070961|bound_else_gene|NA|bound_elsewhere_windowed (ssRNA)
# RNA: GGGAGUUCUACAGUCCGACGAUCAAUGAAAGAUGCUUGAAAUGCUUUUGUUAUUUCAGGCAAAUCAAAUUAAAUCAGACUAUCAAACUACAAGAGAACCUUAGUCUUUUUUGUUUUUGUCUAAACAUGUUAGUUUAGUGAUGUCAACAGAGGAUUGAGCAUCA
# B20: ENSG00000136451:be:win_301|CDS|ENSG00000136451|bound_else_gene|NA|bound_elsewhere_windowed (ssRNA)
# RNA: GGGAGUUCUACAGUCCGACGAUCUUGGUGUCCCGGCCAAAGAAAACCCCCACCACGGUGGUUCCCCUUAUCUCUACCAUCGCUGGGGACAGCAGCCGAACUUCGUUGGUCUCGACCAUUGCAGGCAUCUUGUCAACAGUCACUCAACAGAGGAUUGAGCAUCA
# B21: ENSG00000198589:be:win_9101|3pUTR|ENSG00000198589|bound_else_gene|NA|bound_elsewhere_windowed (ssRNA)
# RNA: GGGAGUUCUACAGUCCGACGAUCUUCAAGCAUGUUUUAGACCUAGAAAAGUAUGGUUUGGGGGAGGCUAUUUUAUUGUGUGGUUAGCACAAGGAAUCUAAUUUAUAGCAAGUGUGAAAUAGUUACCAUUUUUUCCUGAUCUGUCAACAGAGGAUUGAGCAUCA
# B22: chr5:80438700:80438808:+|CDS|ENSG00000039319|unk|FALSE|unique (ssRNA)
# RNA: GGGAGUUCUACAGUCCGACGAUCAGAUACAAUAGAAAGUGAACCCAGCACAGCAGAUACCGUUGUUCCAAUCACUUGUGCUAUAGAUUCUACAGCUGAUCCACAGGUUAGCUUCAACUCUAAUUACAUUGAUAUAGAAAGUAACAACAGAGGAUUGAGCAUCA
# Target: MSI1 full-length (mouse, UniProt Q61474 1-362)
# Assay: nsRBNS (natural sequence RNA bind-n-seq); RBNS binding buffer (assumed for nsRBNS): 25 mM Tris pH 7.5, 150 mM KCl, 3 mM MgCl2, 0.01% Triton X-100, 500 ug/ml BSA, 20 U/ml SUPERase-In, 4 C; UNK is unkempt and MSI1 is Musashi-1; names of the RNAs are library labels; protein concentration not given here; high values mean tight binding
# UniProt Q61474, sequence (Q61474 whole entry): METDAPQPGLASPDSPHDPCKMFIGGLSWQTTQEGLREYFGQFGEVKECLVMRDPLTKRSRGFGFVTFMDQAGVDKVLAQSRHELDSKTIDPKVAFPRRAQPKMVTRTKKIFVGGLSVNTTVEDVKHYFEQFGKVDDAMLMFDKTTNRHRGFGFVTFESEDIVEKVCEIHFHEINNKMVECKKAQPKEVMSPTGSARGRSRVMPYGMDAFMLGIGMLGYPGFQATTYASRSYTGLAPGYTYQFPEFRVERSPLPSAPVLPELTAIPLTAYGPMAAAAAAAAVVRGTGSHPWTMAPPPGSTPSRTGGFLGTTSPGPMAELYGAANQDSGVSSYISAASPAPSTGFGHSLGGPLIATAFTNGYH
row,Binder,binding signal
1,B1,0.796 enrichment R
2,B2,0.277 enrichment R
3,B3,0.53 enrichment R
4,B4,0.246 enrichment R
5,B5,0.384 enrichment R
6,B6,23.7 enrichment R
7,B7,1.41 enrichment R
8,B8,0.827 enrichment R
9,B9,0.603 enrichment R
10,B10,0.819 enrichment R
11,B11,0.223 enrichment R
12,B12,0.529 enrichment R
13,B13,0.416 enrichment R
14,B14,0.759 enrichment R
15,B15,2.52 enrichment R
16,B16,4.59 enrichment R
17,B17,0.428 enrichment R
18,B18,1.79 enrichment R
19,B19,1.39 enrichment R
20,B20,0.365 enrichment R
21,B21,7.83 enrichment R
22,B22,2.36 enrichment R
